Consider 56 sequences from the supplement of paper PMC11417369.

± gives the standard deviation of the averaged measurements. The list shows a part of the results.

For the assay, the system named is PfAP2-EXP AP2 domain (GST-tagged). Description: gcPBM binding intensity (ln(normalized median fluorescence intensity)); higher = stronger DNA binding. Put shortly: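 Binding intensity is defined as the maximum Masliner-normalised natural-log median intensity across replicate spots for either probe orientation. It was measured on an Agilent 4 × 180k array of primer-extended double-stranded 36-bp intergenic genomic probes and negative controls, to which GST-tagged P. falciparum DNA-binding domains made in E. coli were applied for 1 h in 1× PBS with 1% milk, 0.2 mg/ml BSA, 0.5% salmon testes DNA and 0.03% Triton X-100. Detection was by Alexa488 anti-GST antibody and scanning at 488 nm.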
For the sequence “AAAATGACATAATGGGGAATAGACATATACATAAAT [CACACA_negctrl_site1669]”, the “gcPBM binding intensity (ln)” value came out at 8.95 ± 0.47.

“AATACATGAATATGTAGTACAGAAAAAAAAAATATA [XGTACX_site1945]”: the “gcPBM binding intensity (ln)” value worked out at 8.8 ± 0.35.

Take “TATATATATATATATATTTTAAATGATATAAATGGT [TGCATGCA_negctrl_site152]”: the “gcPBM binding intensity (ln)” value is 10.2 ± 0.42.

In the case of “AATTAATTAAATTAATGTACACATATATTTGTATTC [XGTACX_site2341]”, the “gcPBM binding intensity (ln)” value was 8.53 ± 0.27.

Turning to “AAATGGTAAGAAAATAAATAAAGTTCTACCACATAA [CACACA_negctrl_site1542]”, the “gcPBM binding intensity (ln)” value amounted to 8.54 ± 0.51.

For “ATTTTTCTTTTATTAACACACATATAAATAAATACA [CACACA_site2876]”, the “gcPBM binding intensity (ln)” value came out at 8.6 ± 0.47.

For the sequence “ATATATATATATATATATATATATGTTTGATTTTTT [XGTACX_negctrl_site98]”, the “gcPBM binding intensity (ln)” value came out at 10.1 ± 0.45.

For the sequence “TAGAAAGAATATAATTGTACAAATGTTGATAGATAA [XGTACX_site7259]”, the “gcPBM binding intensity (ln)” value was determined as 8.65 ± 0.16.

As for “ATAATAATAAAAATTATACATAAGTATATGCACATA [XGTACX_negctrl_site583]”, the “gcPBM binding intensity (ln)” value is 8.43.

“TATAAACCATAATTAACACACAAAATAAGTTACATA [CACACA_site3227]”: the “gcPBM binding intensity (ln)” value was 8.71 ± 0.28.

Consider “ACATATGGTATTTAAACACACAAAAAAGAAAGAAAA [CACACA_site991]”, for which the “gcPBM binding intensity (ln)” value came out at 8.77 ± 0.52.

Regarding “TTTTGCTTTTTTTTTCTTTTTTGTTTTATATATATT [CACACA_negctrl_site103]”, the “gcPBM binding intensity (ln)” value was determined as 8.51 ± 0.53.

In the case of “TTGACATATAAGATATGTACTAATACACACACATAT [XGTACX_site1904]”, the “gcPBM binding intensity (ln)” value came out at 8.52 ± 0.29.

Turning to “AAATAATAAAACAACACACAAATAGTTAAAATAGAA [CACACA_site5007]”, the “gcPBM binding intensity (ln)” value is 8.85 ± 0.47.

With “ACATTCTATATATACACACATACATAATAAAGAAAG [CACACA_site2771]”, the “gcPBM binding intensity (ln)” value turned out to be 8.71 ± 0.38.

In the case of “TTTTAATGATATATGAGTACACATTGTTTTTTATAA [XGTACX_site1072]”, the “gcPBM binding intensity (ln)” value was 8.4 ± 0.23.

Turning to “ATATAATGATGGAAAAGAAAAGAAATAAAAAAAAAA [CACACA_negctrl_site1170]”, the “gcPBM binding intensity (ln)” value came out at 8.49 ± 0.49.

With “AGAGAAAGAAGGGAGAAAAAATAAAATAAAATAAAA [GTGCAC_negctrl_site299]”, the “gcPBM binding intensity (ln)” value turned out to be 8.74 ± 0.42.

Regarding “AATAAAAAAAAACTCATGCACACAATATTATGAAAA [CACACA_site664]”, the “gcPBM binding intensity (ln)” value was 8.67 ± 0.44.

Turning to “TGCATATGCATTATTTGTACATATGTAGATAATTAT [XGTACX_site6930]”, the “gcPBM binding intensity (ln)” value came out at 8.79 ± 0.3.

Turning to “CATATATAGATATATACACACATACATACATACATA [CACACA_site7748]”, the “gcPBM binding intensity (ln)” value was determined as 8.55 ± 0.38.

For “AATAAAATAAATATATGTACATATATATAACCATTA [XGTACX_site5549]”, the “gcPBM binding intensity (ln)” value was determined as 8.61 ± 0.33.

“AAAAATTACAAATACAAACACACAAATGTTTTTCAT [CACACA_site3551]”: the “gcPBM binding intensity (ln)” value stood at 8.17 ± 0.38.

On to “AGTTTATTTGTAAAAAGTACATATTTAAGAAAACTT [XGTACX_site2318]”, for which the “gcPBM binding intensity (ln)” value was found to be 8.45 ± 0.28.

In the case of “AAATTTGGCAAACACACACACACACCCACACCCACA [CACACA_site8095]”, the “gcPBM binding intensity (ln)” value is 8.63 ± 0.47.

For TTCTAACTCTAACAAGTGCAATATATATACATAATA, the “gcPBM binding intensity (ln)” value was 8.56 ± 0.17.

In the case of “AATATATATCATCACACACACATACATAAATATATA [CACACA_site184]”, the “gcPBM binding intensity (ln)” value was 8.68 ± 0.39.

Turning to “ATAGAATACATATATGAACACACAGAGTTTTAAAAA [CACACA_site8879]”, the “gcPBM binding intensity (ln)” value amounted to 8.68 ± 0.57.

With “AATACATATAAAAGTACACACACACCCATATATATA [CACACA_site8220]”, the “gcPBM binding intensity (ln)” value worked out at 8.85 ± 0.44.

Take “TATATTATATATATGTGTACATATAAATGTAACAAA [XGTACX_site5025]”: the “gcPBM binding intensity (ln)” value came to 8.32 ± 0.31.

With “TTTTTTTTTTGATGTTGTACATATATACTATATAAT [XGTACX_site1332]”, the “gcPBM binding intensity (ln)” value came to 8.57 ± 0.44.

With “GAAAATAAAAAAAATAAAAAAAATAAAAAAAATTAT [XGTACX_negctrl_site443]”, the “gcPBM binding intensity (ln)” value worked out at 8.13 ± 0.51.

In the case of “TTTTGTAACCTATGCACGCACACAAGAAAAAAACAA [CACACA_site3776]”, the “gcPBM binding intensity (ln)” value is 8.71 ± 0.41.

For “TAAATATCTAAAGACTGTACAATTAAATATAAACAT [XGTACX_site1450]”, the “gcPBM binding intensity (ln)” value came to 8.52 ± 0.3.

Take “TTATAAAGAACACAGACACACAAAGAAAGAACCAAT [CACACA_site4175]”: the “gcPBM binding intensity (ln)” value is 9.05 ± 0.51.

Take “CACAAATAAATACATACACACATATATACTCATATA [CACACA_site4379]”: the “gcPBM binding intensity (ln)” value amounted to 8.37 ± 0.49.

“TTACACAAATAGCTGCATTTATAAAATACAATTAAA [CACACA_negctrl_site241]”: the “gcPBM binding intensity (ln)” value came to 8.31 ± 0.39.

Take “TGGGCGTCATAATGAACACACAATTATATTATGACT [CACACA_site3910]”: the “gcPBM binding intensity (ln)” value turned out to be 8.4 ± 0.36.

For “AAATATATATATTTACGTACATATATACAAATAGAG [XGTACX_site6067]”, the “gcPBM binding intensity (ln)” value turned out to be 8.72 ± 0.27.

On to “ATATATATAATAATATGTACGGAAAAAGCTTAAGCT [XGTACX_site5661]”, for which the “gcPBM binding intensity (ln)” value was 8.88 ± 0.46.

In the case of “TTTTGTCAATTTTAGATTTTTCAATACATGGATATT [CACACA_negctrl_site319]”, the “gcPBM binding intensity (ln)” value worked out at 8.22 ± 0.48.

Regarding “ATATATATATATTTATGTACGAATATGTTTAATTTA [XGTACX_site3986]”, the “gcPBM binding intensity (ln)” value was 9.86 ± 0.19.

For the sequence “AATATATTCCACATGTGTACATATATATATATATAT [XGTACX_site8006]”, the “gcPBM binding intensity (ln)” value worked out at 10.3 ± 0.24.

Consider “AAAAATAAAGAAACAGGTACGCATATATTAAGATAT [XGTACX_site8097]”, for which the “gcPBM binding intensity (ln)” value was 8.95 ± 0.47.

In the case of “TTTCCTTCTACAAAAAATTTTATCAAGAGGAAGTAC [CACACA_negctrl_site926]”, the “gcPBM binding intensity (ln)” value stood at 8.64 ± 0.33.

Take TGTCACTACAAATGAGTGCATTAAATAATTTGGAAA: the “gcPBM binding intensity (ln)” value was determined as 8.98 ± 0.41.

On to “CCATAGATATTTTATACACACATATAATATATTAAG [CACACA_site4363]”, for which the “gcPBM binding intensity (ln)” value was determined as 8.55 ± 0.45.

Turning to “AATATTATTTATATTTGTACACAGTAATATAAAATA [XGTACX_site4884]”, the “gcPBM binding intensity (ln)” value was found to be 8.34 ± 0.3.

As to “ATATGCAAAGAGTATAATCAAAATGTAAATAAATAA [GTGCAC_negctrl_site141]”, the “gcPBM binding intensity (ln)” value was found to be 8.78 ± 0.4.

Take “CGAACACAAACACAAACACACATCAGATATAAATAT [CACACA_site6736]”: the “gcPBM binding intensity (ln)” value is 8.53 ± 0.7.

For “ATTTTAGGAAAAAAAAGTACATATAATTTTTTATAT [XGTACX_site6954]”, the “gcPBM binding intensity (ln)” value came out at 8.19 ± 0.31.

For “TGTTTGCTTATGTGTTAAATATATATATATATATAT [TGCATGCA_negctrl_site218]”, the “gcPBM binding intensity (ln)” value worked out at 9.44 ± 1.5.

In the case of “TTTTTTTTGATATATACACACAATAAATAAATATAA [CACACA_site7400]”, the “gcPBM binding intensity (ln)” value came out at 8.39 ± 0.38.

Regarding “ATTTATTATTATATCACACATAATATATTAAATGAT [CACACA_site5821]”, the “gcPBM binding intensity (ln)” value worked out at 8.28 ± 0.39.

Take “AAAAATATAAAAATAGCACACATATATACATATATA [CACACA_site7901]”: the “gcPBM binding intensity (ln)” value stood at 8.34 ± 0.4.

Take “TATGGAGAAATAAATAGTACGTATTTTATTTAAAAA [XGTACX_site3129]”: the “gcPBM binding intensity (ln)” value was found to be 8.54 ± 0.23.
